The campaign covered roughly 52,000 compounds. About 4,300 (8.3%) were called active. Rule as the data show it: active = survival mostly below about 52% (no sharp cut-off); inactive = mostly above about 56%. Some of the results follow.
These compounds were tested on DeltatarO mutant (assay: S. aureus survival, RN4220 and DeltatarO strains – OD600, teichoic acid synthesis inhibitors, primary screen (AID 463173)). Details: S. aureus RN4220 wild type/DeltatarO growth, OD600, 18 h, hits give low values, screened at 18.75 µg/mL (by protocol).

SMILES	survival
CCn1c(=NC(=O)c2ccc(S(=O)(=O)N3CCCCC3)cc2)sc2cccc(OC)c21	inactive: 89%
CCc1nn2c(-c3ccccc3OC)ccnc2c1-c1ccc(F)cc1	active: 2%
COC(=O)c1ccc(NC(=O)CCc2c(C)nc3c(c(C)nn3-c3ccc(C)cc3)c2C)cc1	inactive: 53%
Oc1c(C(c2ccccc2F)N2CCOCC2)sc2nc(-c3ccco3)nn12 (stereo not given)	inactive: 80%
COc1ccc(CCNc2nc(-c3ccc(C)cc3)cc(C(F)F)n2)cc1OC	inactive: 87%
Cc1cccc(NC(=O)c2oc3c(c2C)-c2[nH]ncc2CC3)c1C	inactive: 79%
Cc1cccc(C(=O)N2CCc3cc(CNC(=O)c4ccnn4C)ccc32)c1	inactive: 77%
CCOc1ccccc1NC(=O)CN1C(=O)COc2ccc(S(=O)(=O)N3CCCCCC3)cc21	inactive: 73%
COc1ccc(NC(=O)c2c(C(=O)Nc3ccccc3)sc3nc(C)cc(=O)n23)cc1	inactive: 63%
CCOc1ccccc1NC(=O)Cc1coc2c(C)c(C)ccc12	inactive: 101%
Cc1ccc(CCNC(=O)C(CC(C)C)NS(=O)(=O)c2ccc3c(c2)oc(=O)n3C)cc1 (stereo not given)	inactive: 93%
COc1ccc(-c2cc(C(F)(F)F)nc(SCC(=O)NN3CCN(C)CC3)n2)cc1	inactive: 70%
CCCCN(C)CCCNC(=O)CN1C(=O)COc2ccc(S(=O)(=O)N3CCC(C)CC3)cc21	inactive: 98%
CCOC(=O)N1CCc2c(sc(NCc3sccc3C)c2C(=O)Nc2cc(OC)ccc2OC)C1	inactive: 91%
COc1cccc(NC(=O)CSc2cc(=O)n(C)c3ccc(Cl)cc23)c1	inactive: 85%
Cc1cc(=O)[nH]c2nnc(SCc3ccc(Cl)c(Cl)c3)n12	inactive: 97%
CCCCNC(=O)C1CCN(C(=O)N2CC(C)Oc3ccc(Cl)cc32)CC1 (stereo not given)	inactive: 65%
CCOc1ccccc1-n1c(C)nc2cc(C(=O)O)ccc21	inactive: 103%
CCCCN(C)CCCNC(=O)c1cc(=O)[nH]c2ccc(S(=O)(=O)N3CCCCC3)cc12	inactive: 77%
CC(=O)N1c2ccc(S(=O)(=O)NCC3CCC(C(=O)Nc4ccccc4C)CC3)cc2CC1C (stereo not given)	inactive: 104%
O=C(Nc1ccc(OC(F)(F)F)cc1)C1CCCN(S(=O)(=O)c2cccc3nonc23)C1 (stereo not given)	inactive: 96%
O=C(O)CCCN1C(=O)C(O)=C(C(=O)/C=C/c2ccccc2)C1c1ccccc1 (stereo not given)	inactive: 96%
Cc1cccc(OCC(=O)Nc2nonc2-c2ccc(Br)cc2)c1C	inactive: 68%
O=C(COc1ccc(Cl)cc1)Nc1sc2c(c1C(=O)Nc1cccc(Cl)c1)CCCC2	inactive: 170%
CCOc1ccc(CC(=O)Nc2ccc3c(c2)N(C)C(=O)c2ccccc2S3)cc1OCC	inactive: 95%
Cc1cccc(C)c1-n1ncc(C(=O)NCc2ccc3c(c2)OCO3)c1C1CCN(C(=O)OC(C)(C)C)CC1	inactive: 126%
CCc1ccc(OCC(=O)N(Cc2ccc(C)cc2)Cc2ccco2)cc1	inactive: 91%
COc1ccccc1-c1ccc(=O)n(CC(=O)NC(C)(C)C)n1	inactive: 87%

SMILES	survival
Cc1ccc(NC(=O)CSc2nc(-c3ccc(F)cc3)nc3c2Cc2c(CO)cnc(C)c2O3)cc1C	inactive: 57%
COC(=O)c1ccccc1NC(=O)CN(c1ccccc1OC)S(C)(=O)=O	inactive: 78%
O=C(CSc1nccn1-c1cccc(Cl)c1)Nc1cccc(C(F)(F)F)c1	inactive: 80%
CN(Cc1ccccc1)C(=O)CCS(=O)(=O)c1cc(Br)cc2c1N(C(=O)C1CC1)CC2	inactive: 81%
COc1ccc2c(c1)CCc1sc(NC(=O)c3ccc(Cl)cc3)nc1-2	active: 31%
CCC1=Nc2cc(C(=O)NC(C)c3ccccc3)ccc2Sc2ccc(Cl)cc21 (stereo not given)	inactive: 73%
COCCCNC(=O)CN1C(=O)COc2ccc(S(=O)(=O)N3CCCCCC3)cc21	inactive: 84%
Cc1ccc(NC(=O)CCc2c(C)nc3c(-c4ccccc4)c(C)nn3c2C)c(C)c1	inactive: 66%
COc1ccc(-n2c(=O)c3ccccc3n(CC(=O)NCCc3ccccc3)c2=O)c(OC)c1	inactive: 74%
Cc1cccc(-n2cc(-c3ccccc3)c3c(NC(C)C)ncnc32)c1	inactive: 107%
CC1CCN(S(=O)(=O)c2cn(CC(=O)Nc3ccc(F)c(Cl)c3)c(=O)c3ccccc23)CC1	inactive: 73%
CCCc1nnc(N2C(=O)c3oc4ccc(F)cc4c(=O)c3C2c2ccc(C(=O)OC)cc2)s1 (stereo not given)	inactive: 97%
COc1ccccc1OCC(=O)Nc1nnc2n1CCS2	inactive: 87%
CCCNC(=O)c1cc(-c2ccccc2)on1	inactive: 95%
O=C(COc1ccccc1F)Nc1ccccc1OCc1cc(=O)n2ccccc2n1	inactive: 88%
CC(C)c1ccc(NC(=O)c2ccc(F)c(S(=O)(=O)N3CCCC3)c2)cc1	inactive: 74%
CC1CCN(C(=O)Cn2cc(SCc3ccccc3)c3ccccc32)CC1	inactive: 46%
N#C/C(=C/c1ccc(-c2cc(C(=O)O)ccc2Cl)o1)C(=O)NCCc1c[nH]c2ccccc12	active: 12%
CCC(C)NC(=O)Cn1c(=O)n(CC2CCC(C(=O)NC)CC2)c(=O)c2sccc21 (stereo not given)	inactive: 89%
CCc1ccccc1NC(=O)N1CCN(c2nnc(C)c3c(C)n(-c4ccccc4)nc23)CC1	inactive: 70%
CCOC(=O)c1c(NC(=O)CS(=O)(=O)c2ccc(C)cc2)sc2c1CCC(C)C2 (stereo not given)	inactive: 102%
CC1CCN(C(=O)Cn2cc(SCc3cccc(F)c3)c3ccccc32)CC1	inactive: 59%
O=C(C1CCC1)N1CCc2cc(S(=O)(=O)N3CCN(c4ccccc4)CC3)ccc21	inactive: 72%
COc1cc2ccccc2cc1C(=O)N1CCN(c2nc3c(C)cc(C)cc3s2)CC1	inactive: 130%
O=C(NC1CCCCC1)N(Cc1nc2ccccc2c(=O)[nH]1)C1CCCC1	inactive: 85%
O=S(=O)(c1ccc(S(=O)(=O)N(Cc2ccccc2)Cc2ccco2)cc1)N1CCCCCC1	inactive: 69%
CCOc1ccc(-n2cc(C(=O)Nc3ccccc3OCC)c3cc(OC)c(OC)cc3c2=O)cc1	inactive: 61%
